The source of these data is the supplement of paper PMC5740061.

The other results are listed elsewhere or left out. Many values rest on one well or one pass, so single values are uncertain.

B1: TB1G1 variant; numbered along this chain (parent)
chain: PDEYIERAKECCKKGDIQCCLRYFEESGDPNVMLICLFCP

Variants of B1 are the subject of this test. Nature of the test: TEAD binding enrichment after two sorts vs input, relative to TB1G1 (log2 fold-change); higher = improved TEAD binding. The conditions noted are these: with TEAD1 YAP-binding domain (194-411), TEAD concentration: 20 nM, staining: monovalent 2-step.
Regarding PVEYIERAKECCKKGDIQCCLRYFEESGDPNVMLICLFCP [D2V], the “TEAD binding enrichment (log2)” value is -2.34.

PEEYIERAKECCKKGDIQCCLRYFEESGDPNVMLICLFCP [D2E]: the “TEAD binding enrichment (log2)” value came out at 1.16.

In the case of PQEYIERAKECCKKGDIQCCLRYFEESGDPNVMLICLFCP [D2Q], the “TEAD binding enrichment (log2)” value is -0.201. Under PREYIERAKECCKKGDIQCCLRYFEESGDPNVMLICLFCP [D2R] stands -7.12; under PPEYIERAKECCKKGDIQCCLRYFEESGDPNVMLICLFCP [D2P], -2.11. Next, PIEYIERAKECCKKGDIQCCLRYFEESGDPNVMLICLFCP [D2I]: -0.698; PMEYIERAKECCKKGDIQCCLRYFEESGDPNVMLICLFCP [D2M]: -1.86. On to PAEYIERAKECCKKGDIQCCLRYFEESGDPNVMLICLFCP [D2A], for which the “TEAD binding enrichment (log2)” value is -1.43. Next, PTEYIERAKECCKKGDIQCCLRYFEESGDPNVMLICLFCP [D2T]: -0.52; PLEYIERAKECCKKGDIQCCLRYFEESGDPNVMLICLFCP [D2L]: -3.53; PHEYIERAKECCKKGDIQCCLRYFEESGDPNVMLICLFCP [D2H]: -1.05. As for PWEYIERAKECCKKGDIQCCLRYFEESGDPNVMLICLFCP [D2W], the “TEAD binding enrichment (log2)” value is -2.95.

As for PGEYIERAKECCKKGDIQCCLRYFEESGDPNVMLICLFCP [D2G], the “TEAD binding enrichment (log2)” value is -0.319. Under PDEYIERAKECCKKGDIQCCLRYFEESGDPNVSLICLFCP [M33S] stands -10.6; under PDEYIERAQECCKKGDIQCCLRYFEESGDPNVMLICLFCP [K9Q], 1.1; under PDEYIERADECCKKGDIQCCLRYFEESGDPNVMLICLFCP [K9D], -0.576.

In the case of PDEYIERAFECCKKGDIQCCLRYFEESGDPNVMLICLFCP [K9F], the “TEAD binding enrichment (log2)” value was -3.52. In the case of PDEYIERAPECCKKGDIQCCLRYFEESGDPNVMLICLFCP [K9P], the “TEAD binding enrichment (log2)” value was -4.5.

On to PDEYIERAGECCKKGDIQCCLRYFEESGDPNVMLICLFCP [K9G], for which the “TEAD binding enrichment (log2)” value was -0.48. Regarding PDEYIERARECCKKGDIQCCLRYFEESGDPNVMLICLFCP [K9R], the “TEAD binding enrichment (log2)” value was -1.3. Next, PDEYIERAVECCKKGDIQCCLRYFEESGDPNVMLICLFCP [K9V]: -8.88; PDEYIERAMECCKKGDIQCCLRYFEESGDPNVMLICLFCP [K9M]: -3.56; PDEYIERAHECCKKGDIQCCLRYFEESGDPNVMLICLFCP [K9H]: -1.5.

On to PDEYIERALECCKKGDIQCCLRYFEESGDPNVMLICLFCP [K9L], for which the “TEAD binding enrichment (log2)” value was -11.2. For PDEYIERAWECCKKGDIQCCLRYFEESGDPNVMLICLFCP [K9W], the “TEAD binding enrichment (log2)” value was -4.41. Next, PDEYIERANECCKKGDIQCCLRYFEESGDPNVMLICLFCP [K9N]: 3.31. For GDEYIERAKECCKKGDIQCCLRYFEESGDPNVMLICLFCP [P1G], the “TEAD binding enrichment (log2)” value stood at 1.7. Under NDEYIERAKECCKKGDIQCCLRYFEESGDPNVMLICLFCP [P1N] stands -0.491; under SDEYIERAKECCKKGDIQCCLRYFEESGDPNVMLICLFCP [P1S], 0.135; under LDEYIERAKECCKKGDIQCCLRYFEESGDPNVMLICLFCP [P1L], -2.9. As to WDEYIERAKECCKKGDIQCCLRYFEESGDPNVMLICLFCP [P1W], the “TEAD binding enrichment (log2)” value was -9.1. Next, MDEYIERAKECCKKGDIQCCLRYFEESGDPNVMLICLFCP [P1M]: -1.02; VDEYIERAKECCKKGDIQCCLRYFEESGDPNVMLICLFCP [P1V]: -0.595. In the case of HDEYIERAKECCKKGDIQCCLRYFEESGDPNVMLICLFCP [P1H], the “TEAD binding enrichment (log2)” value is -0.884.

KDEYIERAKECCKKGDIQCCLRYFEESGDPNVMLICLFCP [P1K]: the “TEAD binding enrichment (log2)” value is -0.294. For IDEYIERAKECCKKGDIQCCLRYFEESGDPNVMLICLFCP [P1I], the “TEAD binding enrichment (log2)” value was -2.27. Turning to ADEYIERAKECCKKGDIQCCLRYFEESGDPNVMLICLFCP [P1A], the “TEAD binding enrichment (log2)” value was determined as 0.364.

FDEYIERAKECCKKGDIQCCLRYFEESGDPNVMLICLFCP [P1F]: the “TEAD binding enrichment (log2)” value was -1.3.

YDEYIERAKECCKKGDIQCCLRYFEESGDPNVMLICLFCP [P1Y]: the “TEAD binding enrichment (log2)” value was -3.33. Under RDEYIERAKECCKKGDIQCCLRYFEESGDPNVMLICLFCP [P1R] stands -2.1; under PDELIERAKECCKKGDIQCCLRYFEESGDPNVMLICLFCP [Y4L], -1.81. With PDETIERAKECCKKGDIQCCLRYFEESGDPNVMLICLFCP [Y4T], the “TEAD binding enrichment (log2)” value was -0.869. Consider PDEQIERAKECCKKGDIQCCLRYFEESGDPNVMLICLFCP [Y4Q], for which the “TEAD binding enrichment (log2)” value was determined as 0.291. Under PDEWIERAKECCKKGDIQCCLRYFEESGDPNVMLICLFCP [Y4W] stands -2.47; under PDEFIERAKECCKKGDIQCCLRYFEESGDPNVMLICLFCP [Y4F], 0.668. Next, PDEPIERAKECCKKGDIQCCLRYFEESGDPNVMLICLFCP [Y4P]: 1.02; PDEKIERAKECCKKGDIQCCLRYFEESGDPNVMLICLFCP [Y4K]: -1.58; PDEHIERAKECCKKGDIQCCLRYFEESGDPNVMLICLFCP [Y4H]: -1.9. Consider PDEIIERAKECCKKGDIQCCLRYFEESGDPNVMLICLFCP [Y4I], for which the “TEAD binding enrichment (log2)” value was -0.405.

On to PDEDIERAKECCKKGDIQCCLRYFEESGDPNVMLICLFCP [Y4D], for which the “TEAD binding enrichment (log2)” value is -1.79. Under PDEVIERAKECCKKGDIQCCLRYFEESGDPNVMLICLFCP [Y4V] stands -0.749; under PDESIERAKECCKKGDIQCCLRYFEESGDPNVMLICLFCP [Y4S], -0.738.

Consider PDEYIEFAKECCKKGDIQCCLRYFEESGDPNVMLICLFCP [R7F], for which the “TEAD binding enrichment (log2)” value is -1.04.

As to PDEYIEDAKECCKKGDIQCCLRYFEESGDPNVMLICLFCP [R7D], the “TEAD binding enrichment (log2)” value is -2.25.

Consider PDEYIEQAKECCKKGDIQCCLRYFEESGDPNVMLICLFCP [R7Q], for which the “TEAD binding enrichment (log2)” value is -0.484. As to PDEYIEGAKECCKKGDIQCCLRYFEESGDPNVMLICLFCP [R7G], the “TEAD binding enrichment (log2)” value was 1.31.

As for PDEYIEIAKECCKKGDIQCCLRYFEESGDPNVMLICLFCP [R7I], the “TEAD binding enrichment (log2)” value was -3.98.

PDEYIESAKECCKKGDIQCCLRYFEESGDPNVMLICLFCP [R7S]: the “TEAD binding enrichment (log2)” value came to 0.311. Under PDEYIEYAKECCKKGDIQCCLRYFEESGDPNVMLICLFCP [R7Y] stands -1.01; under PDEYIEEAKECCKKGDIQCCLRYFEESGDPNVMLICLFCP [R7E], -0.163; under PDEYIEHAKECCKKGDIQCCLRYFEESGDPNVMLICLFCP [R7H], -0.322. Under PDEYIENAKECCKKGDIQCCLRYFEESGDPNVMLICLFCP [R7N] stands 0.343.
